Laboratory results as given in PubChem BioAssay AID1963576 (National Center for Advancing Translational Sciences (NCATS), 2024).
In all, about 46,000 compounds went through this assay and about 60 (0.1%) were called active. Roughly 3% stayed inconclusive and do not appear here. Calls follow the shape of the dose curve; as a rule, active = well fitted inhibition curve with a large enough effect; inconclusive = small, poorly fitted or top-dose-only effect; inactive = no such curve, though single readings can be large or run the other way. The list shows a part of the results.

Experiment: Primary qHTS assay for Inhibitors of ovarian cancer metastasis using an organotypic tumor microenvironment (TME) model. Also: nearly all actives have a fitted effect of over 65% in size.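 As to activity change, negative = inhibition: plate controls were DMSO wells for no effect and tomatine positive control wells for full effect.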
Conditions: SKOV3ip1-GFP adhesion/invasion on 3D omental model, fluorescence; series mostly up to 45.8 µM; activity change, negative = inhibition: at the top concentration
Outline: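 Primary human omental fibroblast/mesothelial 3D culture pre-formed 48 h. SKOV3ip1-GFP cells added with compounds (0.36-46 umol/L), incubated 2 h RT/16 h 37 C, fixed; GFP cells quantified at 488/509 nm.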

Activity change, negative = inhibition, inactive:
O=C(c1ccc2c(c1)N(Cc1ccccc1F)C(=O)c1ccccc1S2(=O)=O)N1CCOCC1 13.4%
CCCN(CCC)CCCNC(=O)Cn1cnc2sc(C)c(S(=O)(=O)N3CCCCC3)c2c1=O -1.88%
O=C(COC(=O)c1cc(-c2cccs2)nc2ccccc12)c1ccccc1 -2.82%
CCOC(=O)c1oc2ccc(S(=O)(=O)n3nc(-c4ccccc4OC)cc3N)cc2c1C 14.2%
COc1ccc(C2=NC3(CCCCC3)N(CC(=O)Nc3ccc(C(C)C)cc3)C2=O)cc1 12.2%
CCOCCCNC(=O)c1ccc2nc(CCc3ccccc3)oc2c1 -3.22%
COc1ccc(-c2cc(C(=O)Oc3ccccc3)c3cc(C)ccc3n2)cc1 -17.7%
Cc1ccc(-c2nc3nc(C)cc(N4CCN(c5cc(Cl)ccc5C)CC4)n3n2)cc1 -0.349%
Cc1ccc2nc(N(Cc3cccnc3)C(=O)Cc3ccccc3)sc2c1 3.47%
COc1cccc(CN2CCc3nc(Nc4ccc5c(c4)OCCO5)ncc3C2)c1 -9.6%
CC[C@H](C=C[C@@H](C)[C@H]1CC[C@H]2[C@@H]3CC=C4C[C@@H](O)CC[C@]4(C)[C@@H]3CC[C@]12C)C(C)C 0.676% [at 23.2 µM]
COc1ccc(C(=O)CN2CCN(S(=O)(=O)c3ccc(C(C)C)cc3)CC2)cc1 -2.19%
CC1CCN(c2ncnc3c2cnn3-c2ccc(F)cc2)CC1 -24.8%
Fc1ccc(NCc2cccn2-c2nnc(N3CCOCC3)s2)cc1 -21.9%
Cc1ccccc1Cn1c(SCc2ccc(C(=O)NC(C)c3ccccc3)cc2)nc2ccncc21 (centres undefined) 9%
CCOC(=O)c1ccccc1NC(=O)Cn1ncc2c([nH]c3ccccc32)c1=O -1.12%
COc1cccc(C2CC(=O)Nc3cc4c(cc32)OCCO4)c1OC (centres undefined) -9.85%
CCc1ccccc1NC(=O)CCn1nc(C)c2c(C)n(-c3ccccc3)nc2c1=O 3.72%
CCCCC(C)(C)[C@H](O)C=C[C@H]1[C@H](O)CC(=O)[C@H]1CC=CCCCC(=O)O -15.4%
CCc1ccc(-c2nc(CN3CCC(C(=O)NCCc4ccc(Cl)cc4)CC3)c(C)o2)cc1 4.55%
COC(=O)C1=C(c2ccccc2)c2ccccc2S(=O)(=O)N1CC(=O)Nc1cccc(C(C)=O)c1 9.85%
Cc1ccc(CCNC(=O)c2ccc(NC(=O)N3CC(C)Sc4ccccc43)cc2)cc1 (centres undefined) -6.61%
CC1(C)O[C@H]2CC(=O)OC[C@]23[C@H]2CC[C@@]4(C)[C@H](c5ccoc5)OC(=O)[C@H]5O[C@]54[C@]2(C)C(=O)C[C@@H]13 1.77%
O=C1CSC(=O)N1C(CCc1ccncc1)COc1ccc(-c2cccc([N+](=O)[O-])c2)cc1 (centres undefined) -0.889%
CCc1ccc(OCC(=O)N(Cc2ccco2)Cc2ccccc2Cl)cc1 -6.62%
CC1=C(C(=O)Nc2ccccc2)C(c2ccc(C(=O)O)cc2)n2ncnc2N1 (centres undefined) 4.18%
CCOc1ccc(Nc2nc3c(S(=O)(=O)c4cccc(Cl)c4)nnn3c3ccsc23)cc1 1.75%
CCOc1ccc(NC(=O)c2cnn(-c3ccc(C)c(C)c3)c2C2CCN(C(=O)OC(C)(C)C)CC2)cc1 5.58%
COc1ccccc1N1CCN(C(=O)c2cn(C)c3ccc(S(=O)(=O)N(C)C4CCCCC4)cc3c2=O)CC1 -1.84%
Cc1ccc(C(=O)NCC(c2ccc3c(c2)OCO3)N2CCN(C)CC2)cc1C (centres undefined) 1.38%
CCOC(=O)c1cnc2c(ccc3ccccc32)c1Nc1cccc(C(F)(F)F)c1 2.82%
Cc1cc(C(F)F)n2nc(C(=O)Nc3cccc(Cl)c3C)nc2n1 -7.07%
Cc1ccccc1OCC(=O)Nc1ccccc1C(=O)OCc1cc(=O)n2ccsc2n1 -5.41%
Cc1nn(CCCC(=O)NCCc2ccc(Cl)cc2)c(=O)c2c1sc1ccccc12 4.52%
CCOc1cc(C(=O)NCCc2csc3nc(-c4ccccc4F)nn23)cc(OCC)c1OCC 1.32%
N=c1c(C(=O)NCC2CCCO2)cc2c(=O)n3ccccc3nc2n1CCCO (centres undefined) 14.8%
CCOc1ccc(CNC(=O)C2CCN(S(=O)(=O)c3cn(C)cn3)CC2)cc1 14.3%
O=C(CN1C(=O)CCn2nc(-c3ccccc3)cc21)NCc1ccc(F)cc1 0.697%
O=C(Nc1ccc(-n2nncc2-c2ccccc2)cc1)c1cccc(F)c1 1.37%
Cn1ncc2c(NCc3ccccc3Cl)nc(NCCO)nc21 3.5%
COc1ccc2c(c1)c1c(c(=O)n(-c3ccccc3)c(=O)n1CC(=O)NCCC1=CCCCC1)n2C 5.67%
COc1cc(CN2CCc3nc(N4CCN(c5ncccn5)CC4)ncc3C2)cc(OC)c1OC 14.4%
Cn1nc(C(=O)NCc2cccc(Cl)c2)c2c1-c1ccccc1S(=O)(=O)C2 9.68%
Cc1nc2ccccc2n2c(-c3ccccc3)c3c(=O)n(C)c(=O)n(C)c3c12 3.73%
COc1cccc(CNC(=O)CCn2nc(C)c3c(C)n(-c4ccccc4)nc3c2=O)c1 -3.98%
Cc1c(Cl)cccc1NC(=O)CCS(=O)(=O)c1ccc2c(c1)oc(=O)n2C 0.828%
COc1cccc(Cn2c(CNC(=O)CCc3ccccc3)nc3cccnc32)c1 -0.346%
Cc1ccc(NC(=O)C(=O)NCCc2sc(-c3ccc(Cl)cc3)nc2C)cc1C -13.7%
COc1cccc(C(=O)N(Cc2cccnc2)c2nc3c(OC)ccc(C)c3s2)c1OC 26.8%
CCOc1ccccc1NS(=O)(=O)c1ccc2c(c1)CC(C)N2C(=O)C1CCC1 (centres undefined) 2.3%
CCOc1cc(C2CC(=O)Nc3cc4c(cc32)OCCO4)ccc1O (centres undefined) -2.26%
COC(=O)C(C)Sc1nc2c(cnn2-c2ccc(F)cc2)c(=O)[nH]1 (centres undefined) -4.91%
CCOc1ccc(OCC)c(NS(=O)(=O)c2c(C(=O)N3CCCCCC3)c(C)n(C)c2C)c1 5.15%
O=C(CSc1nnc(-c2ccccc2)c(-c2ccccc2)n1)NC1CCCC1 3.13%
Fc1ccc(-n2cc(-c3ccccc3)c3c(NCCc4ccccc4)ncnc32)cc1 -15.7%
COc1ccc(C)cc1NC(=O)C1COc2ccccc2C1 (centres undefined) 6.17%
COc1ccc(NC(=O)C2=CC(c3ccc4c(c3)OCO4)=NS(=O)(=O)N2C)cc1 -3.75%
COc1ccc(C2c3c(oc4ccc(C)cc4c3=O)C(=O)N2CCCN2CCOCC2)cc1OC (centres undefined) -5.74%
CCOC(=O)C1CCCN(S(=O)(=O)c2cc3c4c(c2)CC(=O)N4CCC3)C1 (centres undefined) 1.34%
COc1cccc(CNC(=O)c2oc3c(c2C)-c2nn(Cc4cccc(Cl)c4)cc2CC3)c1 -1.47%
COc1ccc(S(=O)(=O)NCC(c2ccc(N(C)C)cc2)N2CCCC2)cc1 (centres undefined) 3.93%
Cc1ccc(-n2c(=O)c3c4c(sc3n(Cc3ccccc3C)c2=O)CCC4)cc1C -11.2%
Cc1ccc(NC(=O)Nc2nnc(N(C)C3CCCCC3)s2)c(Cl)c1 -1.72%
Cc1cc(C)c(/C=C/c2onc(C)c2S(=O)(=O)N2CCC(C(=O)N(C)Cc3ccccc3)CC2)c(C)c1 -3.96%
Clc1cccc(-n2cc(-c3ccccc3)c3c(N4CCCCC4)ncnc32)c1 8.35%
Cc1ccccc1C(=O)Nc1nc2nc(-c3ccccc3)cc(=O)n2[nH]1 5.52%
O=C(Nc1ccc2c(c1)OCO2)c1cc(-c2ccc(Br)cc2)on1 2.75%
CCN1C(C(=O)c2ccccc2)=C(OC(=O)c2ccc(OC)cc2)c2ccccc2S1(=O)=O 3.71%
CCCCCCCCCCCCCCCCCCCCCCO -9.32%

outcome, inactive:
CCCN(Cc1cccs1)C(=O)Nc1cc(Cl)c(OC)cc1OC
COc1cccc(-n2c(SCC(=O)Nc3cc(C)ccc3C)nc3c(oc4ccccc43)c2=O)c1
CCn1c(=O)n(-c2ccc(C)c(F)c2)c(=O)c2sc3ccccc3c21
CCc1ccc(-n2c(=O)c3c4c(sc3n(CC(=O)NCCCOC)c2=O)CCCC4)cc1
O=C(NCCc1cccs1)c1ccc(Cn2c(SCc3ccc(F)cc3)nc3cccnc32)cc1
COc1cccc(NC(=O)c2sc3nc(C)c(C(=O)Nc4ccc(C)cc4C)c(-c4ccccc4Cl)c3c2N)c1
CCc1noc(-c2ccc(NCc3ccccc3)c([N+](=O)[O-])c2)n1
Cc1ccc(NC(=O)CCCn2c(=O)c3cccn3c3ccccc32)c(C)c1
COc1ccc(F)cc1S(=O)(=O)NCC(c1ccco1)S(=O)(=O)c1ccc(F)cc1 (centres undefined)
COc1ccc(Cn2c(C(=O)O)c(CNCCc3ccco3)c3ccc(C)cc32)cc1
Cc1ccccc1N(C)S(=O)(=O)c1nnc(NC(=O)c2ccccc2F)s1
CCOC(=O)Cn1c(=O)n(C2CCCCC2)c2nc(-c3ccc(CC)cc3)nc(C(N)=O)c21
CN(c1ccccc1)S(=O)(=O)c1nnc(NC(=O)C2CCCCC2)s1
Cc1ccc(S(=O)(=O)NCCc2csc(-c3ccc(Cl)cc3)n2)cc1
O=C(CSc1nc2ccccc2nc1Cc1ccc(Cl)cc1)N1CCCc2ccccc21
COc1ccc(NCc2cc3cc4c(cc3n(CC(=O)Nc3ccc(F)cc3)c2=O)OCCO4)cc1
CCOC(=O)c1c(C)c(C(=O)NCc2ccc(OC)cc2)c(C)n1CC
COc1cccc(C(=O)NCc2cn3ccccc3n2)c1
Cc1ccc2c(=O)cc(C(=O)Nc3ccc(S(=O)(=O)N(C)Cc4ccccc4)cc3)oc2c1C
O=C(NCCCO)C(=O)NCC(c1ccc2c(c1)OCO2)N1CCOCC1 (centres undefined)
CCOc1ccc(C(=O)c2cn(CC(=O)Nc3ccc(F)cc3)c3cc4c(cc3c2=O)OCCO4)cc1
CCc1ccc(NC(=O)Cn2c(=O)n(CCCCC(=O)NCCc3ccccc3)c(=O)c3ccccc32)cc1
CCC(C)(C)NC(=O)C1CCN(S(=O)(=O)c2c(C)noc2/C=C/c2ccc(C)cc2)CC1
COc1ccc(-c2noc(CC(=O)Nc3ccc(Br)cc3C)n2)cc1
CCOC(=O)c1c(NC(=O)COc2c(C)cc(Cl)cc2Cl)sc2c1CCCC2
